Experimental data as given in US20180273573A1, “INHIBITORS OF MENAQUINONE BIOSYNTHESIS” (Memorial Sloan-Kettering Cancer Center, priority 2015, published 2018).

Target: E. coli MenE (ecMenE) (Escherichia coli, UniProt P37353)
Experiment: MenE-MenB coupled assay (enzyme inhibition, catalytic parameters)

Sequence of E. coli MenE (ecMenE) (P37353 whole entry): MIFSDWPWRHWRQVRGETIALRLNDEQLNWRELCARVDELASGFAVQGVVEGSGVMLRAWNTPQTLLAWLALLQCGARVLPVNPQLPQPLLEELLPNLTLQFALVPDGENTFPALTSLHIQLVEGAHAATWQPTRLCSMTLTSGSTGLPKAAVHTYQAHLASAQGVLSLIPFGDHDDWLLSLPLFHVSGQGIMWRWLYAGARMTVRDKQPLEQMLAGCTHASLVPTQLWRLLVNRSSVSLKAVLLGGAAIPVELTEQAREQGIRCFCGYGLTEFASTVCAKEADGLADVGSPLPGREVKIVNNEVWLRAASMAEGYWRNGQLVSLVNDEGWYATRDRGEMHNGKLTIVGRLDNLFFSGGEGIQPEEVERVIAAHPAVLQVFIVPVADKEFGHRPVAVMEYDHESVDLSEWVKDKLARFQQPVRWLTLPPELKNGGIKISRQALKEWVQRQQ

Compound	IC50 [µM]
Nc1ncnc2c1ncn2[C@@H]1O[C@H](COS(=O)(=O)NC(=O)CCC2OC(=O)c3ccccc32)[C@@H](O)[C@H]1O (some centres unmarked) [Compound 107, 5′-O—(N-[3-(3-Oxo-1,3-dihydroisobenzofuran-1-yl)propanoyl]sulfamoyl) adenosine]	> 100
Nc1ncnc2c1ncn2[C@@H]1O[C@H](COS(=O)(=O)NC(=O)CCC2(O)NC(=O)c3ccccc32)[C@@H](O)[C@H]1O (some centres unmarked) [Compound 108, 5′-O—(N-[3-(1-Hydroxy-3-oxoisoindolin-1-yl)propanoyl]sulfamoyl) adenosine]	> 100
